Data taken from PMC9911399, “Two distinct binding modes provide the RNA-binding protein RbFox with extraordinary sequence specificity”.
Numbering of substitutions follows the chain as printed; changes in the protein carry UniProt numbers. Some of the results follow.

T1: RBFOX1 RRM RbFoxmut (Fox-RRM*) (Homo sapiens, UniProt Q9NWB1 109-208, R118D;E147R;N151S;E152T)
T1 sequence: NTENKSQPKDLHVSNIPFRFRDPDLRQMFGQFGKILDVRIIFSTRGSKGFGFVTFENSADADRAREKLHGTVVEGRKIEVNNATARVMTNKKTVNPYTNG

B1: GUUACGC (DNA:RNA)
RNA: GGGAGACCGGAAUUCAGAUUGUCCGUUACGCUUAAAUCCCGUCGUAGCCACCA
DNA 1: CAATCTGAATTCCGGTCTCCC
DNA 2: TGGTGGCTACGACGGGATT
B2: CGUACUA (DNA:RNA)
RNA: B1 RNA with G25C, U26G, G30U, C31A
DNA 1: CAATCTGAATTCCGGTCTCCC
DNA 2: TGGTGGCTACGACGGGATT
B3: AAUAUUU (DNA:RNA)
RNA: B1 RNA with G25A, U26A, C29U, G30U, C31U
DNA 1: CAATCTGAATTCCGGTCTCCC
DNA 2: TGGTGGCTACGACGGGATT
B4: CCCCUUU (DNA:RNA)
RNA: GGGAGACCGGAAUUCAGAUUGUCCCCCCUUUUUAAAUCCCGUCGUAGCCACCA
DNA 1: CAATCTGAATTCCGGTCTCCC
DNA 2: TGGTGGCTACGACGGGATT
B5: UGGGCCC (DNA:RNA)
RNA: B1 RNA with G25U, U26G, U27G, A28G, G30C
DNA 1: CAATCTGAATTCCGGTCTCCC
DNA 2: TGGTGGCTACGACGGGATT
B6: GACCCAG (DNA:RNA)
RNA: B4 RNA with C25G, C26A, U29C, U30A, U31G
DNA 1: CAATCTGAATTCCGGTCTCCC
DNA 2: TGGTGGCTACGACGGGATT
B7: UUCGUAC (DNA:RNA)
RNA: B4 RNA with C25U, C26U, C28G, U30A, U31C
DNA 1: CAATCTGAATTCCGGTCTCCC
DNA 2: TGGTGGCTACGACGGGATT
B8: UUGCUUA (DNA:RNA)
RNA: B4 RNA with C25U, C26U, C27G, U31A
DNA 1: CAATCTGAATTCCGGTCTCCC
DNA 2: TGGTGGCTACGACGGGATT
B9: GUGUUGA (DNA:RNA)
RNA: B1 RNA with U27G, A28U, C29U, C31A
DNA 1: CAATCTGAATTCCGGTCTCCC
DNA 2: TGGTGGCTACGACGGGATT
B10: AUCGAGC (DNA:RNA)
RNA: B1 RNA with G25A, U27C, A28G, C29A
DNA 1: CAATCTGAATTCCGGTCTCCC
DNA 2: TGGTGGCTACGACGGGATT
B11: GCACGCU (DNA:RNA)
RNA: B4 RNA with C25G, C27A, U29G, U30C
DNA 1: CAATCTGAATTCCGGTCTCCC
DNA 2: TGGTGGCTACGACGGGATT
B12: CGUAUAA (DNA:RNA)
RNA: B4 RNA with C26G, C27U, C28A, U30A, U31A
DNA 1: CAATCTGAATTCCGGTCTCCC
DNA 2: TGGTGGCTACGACGGGATT
B13: ACCGUGC (DNA:RNA)
RNA: B4 RNA with C25A, C28G, U30G, U31C
DNA 1: CAATCTGAATTCCGGTCTCCC
DNA 2: TGGTGGCTACGACGGGATT
B14: UACCGCA (DNA:RNA)
RNA: B4 RNA with C25U, C26A, U29G, U30C, U31A
DNA 1: CAATCTGAATTCCGGTCTCCC
DNA 2: TGGTGGCTACGACGGGATT
B15: GCCAGCU (DNA:RNA)
RNA: B4 RNA with C25G, C28A, U29G, U30C
DNA 1: CAATCTGAATTCCGGTCTCCC
DNA 2: TGGTGGCTACGACGGGATT
B16: AUGUUUU (DNA:RNA)
RNA: B4 RNA with C25A, C26U, C27G, C28U
DNA 1: CAATCTGAATTCCGGTCTCCC
DNA 2: TGGTGGCTACGACGGGATT
B17: UCCGGCA (DNA:RNA)
RNA: B4 RNA with C25U, C28G, U29G, U30C, U31A
DNA 1: CAATCTGAATTCCGGTCTCCC
DNA 2: TGGTGGCTACGACGGGATT
B18: GAGAAAC (DNA:RNA)
RNA: B1 RNA with U26A, U27G, C29A, G30A
DNA 1: CAATCTGAATTCCGGTCTCCC
DNA 2: TGGTGGCTACGACGGGATT
B19: CAUGCUG (DNA:RNA)
RNA: B4 RNA with C26A, C27U, C28G, U29C, U31G
DNA 1: CAATCTGAATTCCGGTCTCCC
DNA 2: TGGTGGCTACGACGGGATT
B20: CUCCGGA (DNA:RNA)
RNA: B4 RNA with C26U, U29G, U30G, U31A
DNA 1: CAATCTGAATTCCGGTCTCCC
DNA 2: TGGTGGCTACGACGGGATT
B21: CGCUCAG (DNA:RNA)
RNA: B4 RNA with C26G, C28U, U29C, U30A, U31G
DNA 1: CAATCTGAATTCCGGTCTCCC
DNA 2: TGGTGGCTACGACGGGATT
B22: GGGCUCG (DNA:RNA)
RNA: B4 RNA with C25G, C26G, C27G, U30C, U31G
DNA 1: CAATCTGAATTCCGGTCTCCC
DNA 2: TGGTGGCTACGACGGGATT
B23: CGCCCCC (DNA:RNA)
RNA: B4 RNA with C26G, U29C, U30C, U31C
DNA 1: CAATCTGAATTCCGGTCTCCC
DNA 2: TGGTGGCTACGACGGGATT
B24: AUCCCUC (DNA:RNA)
RNA: B4 RNA with C25A, C26U, U29C, U31C
DNA 1: CAATCTGAATTCCGGTCTCCC
DNA 2: TGGTGGCTACGACGGGATT
B25: UAAGCUA (DNA:RNA)
RNA: B4 RNA with C25U, C26A, C27A, C28G, U29C, U31A
DNA 1: CAATCTGAATTCCGGTCTCCC
DNA 2: TGGTGGCTACGACGGGATT
B26: UGGGUCG (DNA:RNA)
RNA: B4 RNA with C25U, C26G, C27G, C28G, U30C, U31G
DNA 1: CAATCTGAATTCCGGTCTCCC
DNA 2: TGGTGGCTACGACGGGATT
B27: AUGACGG (DNA:RNA)
RNA: B1 RNA with G25A, U27G, C31G
DNA 1: CAATCTGAATTCCGGTCTCCC
DNA 2: TGGTGGCTACGACGGGATT
B28: AACCUUG (DNA:RNA)
RNA: B4 RNA with C25A, C26A, U31G
DNA 1: CAATCTGAATTCCGGTCTCCC
DNA 2: TGGTGGCTACGACGGGATT
B29: CAAAUUU (DNA:RNA)
RNA: B4 RNA with C26A, C27A, C28A
DNA 1: CAATCTGAATTCCGGTCTCCC
DNA 2: TGGTGGCTACGACGGGATT
B30: CGCUAUG (DNA:RNA)
RNA: B4 RNA with C26G, C28U, U29A, U31G
DNA 1: CAATCTGAATTCCGGTCTCCC
DNA 2: TGGTGGCTACGACGGGATT
B31: GCAUUUC (DNA:RNA)
RNA: B4 RNA with C25G, C27A, C28U, U31C
DNA 1: CAATCTGAATTCCGGTCTCCC
DNA 2: TGGTGGCTACGACGGGATT

These binders were tested against T1, RBFOX1 RRM RbFoxmut (Fox-RRM*) (assay: EMSA; HiTS-Eq, 1 nM pool, 10 min; buffer printed only for the single-RNA assays: 10 mM Tris pH 7.5, 150 mM NaCl, 3.4 mM EDTA, 0.001% NP-40, 30 C). Conditions: tags: His6 N-terminal (pET28a); label: 5' 32P.
Procedure, shortened: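 These values rest on relative association constants, computed from read-count changes of each RNA species versus the control reaction and normalised to the cognate motif. Reads came from free RNA recovered by 8% native PAGE after purified RbFox RRM (wild type or mutant) at increasing concentrations was equilibrated for 10 min in 50 µL with 1 nM of a 5′-radiolabelled pool with 7 randomized nucleotides and DNA-annealed flanks.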

Binder | binding signal
B1 | 0.126 KA relative to UGCAUGU
B2 | 0.0884 KA relative to UGCAUGU
B3 | 0.117 KA relative to UGCAUGU
B4 | 0.0777 KA relative to UGCAUGU
B5 | 0.0962 KA relative to UGCAUGU
B6 | 0.0716 KA relative to UGCAUGU
B7 | 0.134 KA relative to UGCAUGU
B8 | 0.15 KA relative to UGCAUGU
B9 | 0.101 KA relative to UGCAUGU
B10 | 0.108 KA relative to UGCAUGU
B11 | 0.128 KA relative to UGCAUGU
B12 | 0.0769 KA relative to UGCAUGU
B13 | 0.129 KA relative to UGCAUGU
B14 | 0.132 KA relative to UGCAUGU
B15 | 0.0901 KA relative to UGCAUGU
B16 | 0.134 KA relative to UGCAUGU

Binder | binding signal
B17 | 0.0909 KA relative to UGCAUGU
B18 | 0.0662 KA relative to UGCAUGU
B19 | 0.124 KA relative to UGCAUGU
B20 | 0.0672 KA relative to UGCAUGU
B21 | 0.105 KA relative to UGCAUGU
B22 | 0.256 KA relative to UGCAUGU
B23 | 0.0547 KA relative to UGCAUGU
B24 | 0.0705 KA relative to UGCAUGU
B25 | 0.0783 KA relative to UGCAUGU
B26 | 0.375 KA relative to UGCAUGU
B27 | 0.0993 KA relative to UGCAUGU
B28 | 0.0938 KA relative to UGCAUGU
B29 | 0.0689 KA relative to UGCAUGU
B30 | 0.184 KA relative to UGCAUGU
B31 | 0.0777 KA relative to UGCAUGU
